Experimental data published in CN115594767A (CRYSTAL ORIGIN BIOMEDICAL SUZHOU CO LTD, dated 2023).

Molecular target: CD16A-158V (UniProt P08637 fragment)
Test: BLI, CD16A-158V on anti-his probe, antibody as analyte

Sequence of CD16A-158V (P08637 17-208 F176V limits assumed): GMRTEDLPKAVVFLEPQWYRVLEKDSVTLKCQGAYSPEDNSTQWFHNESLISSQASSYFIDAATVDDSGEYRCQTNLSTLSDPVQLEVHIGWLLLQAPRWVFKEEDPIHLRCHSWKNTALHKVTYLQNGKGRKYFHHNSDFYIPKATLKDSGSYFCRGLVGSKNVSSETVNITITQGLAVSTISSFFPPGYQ

Kd: 77.8 nM
koff: 0.0277 s⁻¹
kon: 357000 M⁻¹ s⁻¹
B1: JY004 (bispecific antibody, human IgG1, kappa)
heavy: [no letters for about 120 residues]GGGGSGGGGSEVQLVESGGGLVQPGGSLRLSCAASGFTFTDYTMDWVRQAPGKGLEWVADVNPNSGGSIYNQRFKGRFTLSVDRSKNTLYLQMNSLRAEDTAVYYCARNLGPSFYFDYWGQGTLVTVSSASTKGPSVFPLAPSSKSTSGGTAALGCLVKDYFPEPVTVSWNSGALTSGVHTFPAVLQSSGLYSLSSVVTVPSSSLGTQTYICNVNHKPSNTKVDKKVEPKSCDKTHTCPPCPAPELVGGPSVFLLPPKPKDTLMISRTPEVTCVVVDVSHEDPEVKFNWYVDGVEVHNAKTKPPEEQYNSTLRVVSVLTVLHQDWLNGKEYKCKVSNKALPAPIEKTISKAKGQPREPQVYTLPPSREEMTKNQVSLTCLVKGFYPSDIAVEWESNGQPENNYKTTPLVLDSDGSFFLYSKLTVDKSRWQQGNVFSCSVMHEALHNHYTQKSLSLSPGK
light: [no letters for about 100 residues]GGGGSGGGGSDIQMTQSPSSLSASVGDRVTITCKASQDVSIGVAWYQQKPGKAPKLLIYSASYRYTGVPSRFSGSGSGTDFTLTISSLQPEDFATYYCQQYYIYPYTFGQGTKVEIKRTVAAPSVFIFPPSDEQLKSGTASVVCLLNNFYPREAKVQWKVDNALQSGNSQESVTEQDSKDSTYSLSSTLTLSKADYEKHKVYACEVTHQGLSSPVTKSFNRGEC
notes: also called 本发明的抗体; 靶向HER2的双特异性抗体
